About 540 (0.36%) of roughly 150,000 compounds showed an effect of 50% or more. This is one part of the list.

The term % Inhibition denotes the relative decrease from the control value, in per cent.

The assay has as its system Plasmodium falciparum. Briefly: Primary screen in NF54 nanoGlo assay, in single point, at 2uM, 72h; a lower Z score goes with more inhibition. The format is functional, Erythrocyte. The following applies: timepoint 72 hour.
As for `Brc1ccc2oc(N3CCC(c4ncc[nH]4)CC3)nc2c1`, the “% Inhibition” value is -3% and the Z score stood at 0.66.

In the case of `O[C@H](COCc1ccco1)CN1CCN(c2ncccn2)CC1`, the “% Inhibition” value was 12% and the Z score was -1.49.

As to `CCN(CC(N)=O)C(=O)C#Cc1ccccc1`, the “% Inhibition” value turned out to be 0% and the Z score was -0.02.

Turning to `CC(C(=O)NCC(NC(=O)C(C)C1CC1)C(F)(F)F)C1CC1` (stereo unspecified), the “% Inhibition” value was -12% and the Z score was 1.56.

Take `CCc1ccc(NCC(=O)NC(N)=O)c(C(=O)OC)c1`: the “% Inhibition” value is on record as -9% and the Z score was 1.11.

For the molecule `Cc1noc(CCNC(=O)N(Cc2c(F)cccc2F)C2CC2)n1`, the “% Inhibition” value is given as -8% and the Z score is recorded as 1.1.

As to `CC(C(C)S(C)(=O)=O)N(C)C(=O)Cc1ccc(N)cc1` (stereo unspecified), the “% Inhibition” value is recorded as -10% and the Z score came to 1.05.

On to `CCNc1ncc(C(=O)N2C[C@@H]3NC(=O)CN(C4CC4)C(=O)CCc4ccc(c(OC)c4)Oc4cccc(c4)CO[C@H]3C2)cn1`, for which the “% Inhibition” value is 9% and the Z score is given as -1.66.

As to `O=C1CC2(CCN(C(=O)[C@@H]3CCCO3)CC2)CN1Cc1ccc(F)c(F)c1`, the “% Inhibition” value is -3% and the Z score worked out at 0.5.

For `Cc1cc(NC(=O)c2ccc(-c3ccccc3)cc2)n(C)n1`, the “% Inhibition” value is recorded as 11% and the Z score was -1.64.

Consider `Cc1cccc(C(=O)N(CN2CCCC2=O)c2cccc(Cl)c2)c1`, for which the “% Inhibition” value is -7% and the Z score amounted to 1.12.

For `COc1ccc(-c2ccc(N3CCN(C(=O)CN(CCN4CCOCC4)C(=O)c4ccccc4F)CC3)nn2)cc1OC`, the “% Inhibition” value was 5% and the Z score is reported as -0.55.

Consider `CC(=O)N1CCCN(C(=O)c2cc3c(C)nn(C)c3s2)CC1`, for which the “% Inhibition” value was found to be 8% and the Z score is reported as -0.98.

For the molecule `O=S(=O)(Cc1ccccc1)N1CCC(OCCOc2cccnc2)CC1`, the “% Inhibition” value is -4% and the Z score is 0.64.

As to `O=C(NCC1(Cn2cccn2)CC1)c1ccc(-c2cnc(=O)[nH]c2)cc1`, the “% Inhibition” value is -2% and the Z score came to 0.26.

For the molecule `CNc1ncc(C(=O)N2CCC[C@]3(CCC(=O)N(C4CCCC4)C3)C2)cn1`, the “% Inhibition” value was -3% and the Z score is 0.56.

Consider `CC(C)n1nccc1NC(=O)c1cc(C2CC2)[nH]n1`, for which the “% Inhibition” value turned out to be 3% and the Z score is -0.58.

In the case of `N#Cc1ccc(N2CCC[C@H](S(=O)(=O)NC3CCCC3)C2)c(F)c1`, the “% Inhibition” value is recorded as 4% and the Z score was -0.43.

On to `CCCCCN(C)c1ccc(F)cc1CNCCC(=O)N(C)C`, for which the “% Inhibition” value was -4% and the Z score amounted to 0.51.

On to `O=C(NC1CCCC1O)C(F)(F)c1ccccn1` (stereo unspecified), for which the “% Inhibition” value was -10% and the Z score came to 0.93.

Turning to `CC(C)C[C@H](NCc1nc(N(C)C)no1)c1cccs1`, the “% Inhibition” value is reported as -13% and the Z score was determined as 1.57.

With `COC(=O)N(C)CCCC(=O)Nc1cn(-c2cc(C)cc(F)c2)nn1`, the “% Inhibition” value amounted to 10% and the Z score is on record as -1.12.

On to `O=C(NCc1ncc[nH]1)c1ccc(S(=O)(=O)N[C@H]2CCOC2)cc1`, for which the “% Inhibition” value is -11% and the Z score is on record as 1.46.

As for `Cc1cc(C(=O)NC[C@H](O)c2cccn2C)no1`, the “% Inhibition” value is reported as -21% and the Z score was 3.52.

As to `O=C(NC1CCCCC1)c1ccc2c(c1)N(C(=O)c1ccc(F)cc1)CC2`, the “% Inhibition” value is on record as -4% and the Z score is 0.44.

As for `CCCc1cncnc1N1CCC(NC2Cc3ccccc3C2)CC1`, the “% Inhibition” value was -13% and the Z score is 2.21.

For `CCN(CC)Cc1cn(C2CCN(c3ncnc4[nH]cnc34)CC2)nn1`, the “% Inhibition” value was -6% and the Z score is 1.03.

`CC(=O)N1CC2=Nc3cccc4c3c(cn4C(C)C)[C@H](c3ccc(OCCN4CCCC4=O)cc3)C2=C1O`: the “% Inhibition” value is reported as -7% and the Z score is recorded as 1.03.

`Cc1cc(-c2noc(C3CCOC(C)C3)n2)cc(N)n1` (stereo unspecified): the “% Inhibition” value is listed as 10% and the Z score is on record as -1.15.

For the molecule `Cc1cc(=O)c(C(=O)N(C)[C@@H](C)c2ccco2)cn1C1CC1`, the “% Inhibition” value came out at 1% and the Z score is listed as -0.13.

On to `CC(C)(C)NCCOCCOc1cccc(Cl)c1Cl`, for which the “% Inhibition” value was -8% and the Z score turned out to be 1.57.

With `CCC(C)C(=O)NCC1(NC(=O)C(C)CC)CCOCC1` (stereo unspecified), the “% Inhibition” value is on record as -10% and the Z score is 0.82.

As for `CC[C@H]1CN(Cc2ccc(CN(C)S(C)(=O)=O)o2)CCN1C(C)C`, the “% Inhibition” value was -7% and the Z score came out at 0.63.

Turning to `Cc1ccsc1C(=O)Nc1cccnc1-n1cccn1`, the “% Inhibition” value came out at 6% and the Z score is recorded as -0.82.

As for `CCOc1ccc(C(=O)N2CCC3(CC2)N(CCOC)C(=O)CS3(=O)=O)cc1`, the “% Inhibition” value is listed as -12% and the Z score was 1.76.

Take `Cc1cc(-c2cc(N3CCCC3)nc(N)n2)[nH]n1`: the “% Inhibition” value is -23% and the Z score is given as 2.97.

As for `O=C(NCC1(O)CCCC1)C1CCCCC1`, the “% Inhibition” value was -22% and the Z score came out at 3.75.

As for `CN(Cc1cnn(C)c1)c1ccc(C(=O)NCC[C@H]2CCCCN2C)cn1`, the “% Inhibition” value is reported as -6% and the Z score was 1.24.

For the molecule `Cc1ccc(CNC(=O)[C@]2(C)CN(S(=O)(=O)c3ccccc3)CC(=O)N2Cc2ccc(C)o2)cc1`, the “% Inhibition” value was -9% and the Z score came to 1.18.

As for `CN1CCC2CC[C@H](C1)N2C(=O)c1csc2ccccc12`, the “% Inhibition” value is reported as -1% and the Z score came out at 0.09.

As to `Cn1ncc2c(N3CCNc4ccccc4C3)ncnc21`, the “% Inhibition” value came out at 0% and the Z score is on record as -0.04.

For the molecule `CCCn1ncc(C)c1NC(=O)C[C@H](C)n1cccn1`, the “% Inhibition” value worked out at 1% and the Z score is -0.09.

In the case of `CCc1nn(C)c(Cl)c1C(=O)Nc1cccc(-c2ccc3c(c2)OCCO3)n1`, the “% Inhibition” value was determined as 4% and the Z score is -0.6.

The record behind these values is ChEMBL document CHEMBL4888484, “Replenishing the malaria drug discovery pipeline: Screening and hit evaluation of the MMV Hit Generation Library 1 (HGL1) against asexual blood stage Plasmodium falciparum ,using a nano luciferase reporter read-out” (2022).
